# Where “and” joins values, the source holds several entries; their conditions need not be identical. Identical values can stand only once. In all, about 410,000 compounds went through this assay and about 6,400 (1.6%) were called active. Inconclusive means that the source gave no clear call. Such entries were picked first, then a sample of the others. The call rests on the fitted dose curve; in most records, active means well fitted inhibition curve with a large enough effect; inconclusive means small, poorly fitted or top-dose-only effect; inactive means no such curve, though single readings can be large or run the other way. A potency beside an inconclusive call is a rough fit, not a confirmed value.
# Molecular target: Glucagon-like peptide 1 receptor (Homo sapiens) (UniProt P43220)
# Assay: qHTS of GLP-1 Receptor Inverse Agonists (Inhibition Mode); further: nearly all actives have a fitted effect of over 55% in size
# Conditions: HEK293 GLP-1R CRE-luciferase, luminescence, 24 h, GLP-1R form is constitutively active; series mostly up to 38.3 µM
# Summary of the method: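 Luminescence readout: a drop in cAMP-driven luciferase signal flags inverse agonism at a constitutively active GLP-1R stably expressed in HEK293. Compound exposure lasted 24 hr at 37 deg C, 5% CO2.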
# Potency means the concentration at half of the fitted maximal effect; tags describe the fitted curve by direction and shape.
# UniProt P43220, sequence (P43220 whole entry, looked up): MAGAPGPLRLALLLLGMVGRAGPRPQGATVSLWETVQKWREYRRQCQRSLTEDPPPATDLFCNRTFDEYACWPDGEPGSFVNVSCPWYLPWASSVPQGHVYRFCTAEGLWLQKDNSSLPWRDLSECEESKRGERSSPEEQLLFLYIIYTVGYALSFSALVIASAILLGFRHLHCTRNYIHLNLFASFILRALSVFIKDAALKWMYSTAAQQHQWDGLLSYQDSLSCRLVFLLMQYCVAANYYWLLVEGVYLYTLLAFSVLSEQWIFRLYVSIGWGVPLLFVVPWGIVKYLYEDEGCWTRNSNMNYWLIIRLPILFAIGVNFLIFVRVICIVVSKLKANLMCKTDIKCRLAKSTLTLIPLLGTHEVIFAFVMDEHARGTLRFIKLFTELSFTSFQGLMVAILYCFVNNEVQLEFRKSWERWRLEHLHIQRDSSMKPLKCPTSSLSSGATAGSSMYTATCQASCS
row,Structure (SMILES),Potency
1,CCN(CC1CCCN(CCc2cccc(F)c2)C1)C(=O)c1cc2ccccc2o1 (stereo not drawn),"inconclusive: 11.2 µM [inhibitor, partial curve, poor fit]"
2,O=C(c1ccc(N2C(=O)C3C4CC(C(Br)C4Br)C3C2=O)cc1)N1CCCCC1 (stereo not drawn),inactive
3,O=[N+]([O-])c1ccccc1NCc1ccccc1Cl,"inconclusive: 22.4 µM [inhibitor, single point]"
4,Cc1ccc(-c2n[nH]c(=S)n2/N=C/c2c(C)[nH]n(-c3ccccc3)c2=O)cc1,inactive
5,CCOc1c(OC(C)=O)ccc(/C=C2\N=C(SCC)SC2=O)c1[N+](=O)[O-],"inconclusive: 28.2 µM [inhibitor, single point]"
6,Cc1ccc(Cl)cc1NC(=S)N(CCN(C)C)Cc1cccs1,"inconclusive: 28.2 µM [inhibitor, single point]"
7,COc1ccc(N(CC(=O)N2CCN(c3cccc(Cl)c3)CC2)S(=O)(=O)c2c(C)noc2C)cc1,"inconclusive: 10 µM [inhibitor, partial curve, poor fit] and inconclusive: 12.6 µM [inhibitor, partial curve, poor fit]"
8,CCN(CC(=O)Nc1cccc(S(=O)(=O)N(C)c2ccccc2)c1)Cc1ccccc1,"inconclusive: 28.2 µM [inhibitor, single point]"
9,CSc1ccc(/C=N/NC(=O)CN2CCN(Cc3ccccc3Cl)CC2)cc1,"inconclusive: 5.01 µM [inhibitor, partial curve]"
10,Nc1nc(SCc2ccccc2)sc1C(=O)N1CCCCC1,"inconclusive: 28.2 µM [inhibitor, single point]"
11,CC(C)Cn1cc(C(=O)N2CCN(c3ccccn3)CC2)c2c3ccccc3n(C)c2c1=O,inactive
12,COc1ccc(NC(=O)c2cccc(-c3ccc(O)cc3)c2)cn1,"inconclusive: 5.01 µM [inhibitor, full curve, poor fit]"
13,Cc1ccc(CN(CC(=O)NCc2ccc3c(c2)OCO3)C(=O)c2csnn2)cc1,"inconclusive: 2 µM [inhibitor, full curve, poor fit]"
14,Cc1ccc(Nc2nc(-c3ccc(O)c(O)c3)cs2)nc1,"inconclusive: 28.2 µM [inhibitor, single point]"
15,Cc1ccc(NC(=O)c2ccccc2NS(=O)(=O)c2ccc(F)cc2)cc1S(=O)(=O)N1CCCCC1,"inconclusive: 1.12 µM [inhibitor, full curve, poor fit]"
16,COc1ccccc1N1CCN(/N=C/C=C\c2ccccc2[N+](=O)[O-])CC1,"inconclusive: 10 µM [inhibitor, partial curve, poor fit]"
17,CCc1ccc(CNC(=O)c2ccc(Cn3c(=O)c4cccn4c4cccnc43)cc2)cc1,inactive
18,COc1ccc(NC(=O)CC2C(=O)N(CCc3ccccc3)C(=S)N2Cc2cccnc2)cc1 (stereo not drawn),"inconclusive: 12.6 µM [inhibitor, partial curve, poor fit]"
19,COc1ccc2c(C)cc(SCC(=O)Nc3c(C)n(C)n(-c4ccccc4)c3=O)nc2c1,inactive
20,O=C(CC1C(=O)NCCN1C(=O)Nc1ccccc1)Nc1cc(Cl)ccc1Cl (stereo not drawn),"inconclusive: 10 µM [inhibitor, single point]"
21,COC(=O)[C@@]1(Cc2ccc(F)cc2)[C@H]2c3cc(C(=O)N4CCCC4)n(Cc4ccc(C)o4)c3C[C@H]2CN1C(=O)c1ccccc1,"inconclusive: 28.2 µM [inhibitor, single point]"

row,Structure (SMILES),Potency
1,COc1ccc(NS(=O)(=O)c2cccc(Cl)c2)cc1S(=O)(=O)N1CCCCC1,"inconclusive: 10 µM [inhibitor, single point]"
2,CC(C)(C)c1ccc(CN2C(=O)c3ccccc3S2(=O)=O)cc1,active: 10 µM
3,COc1cccc(OCCCN2CCN(S(=O)(=O)c3ccc(NC(C)=O)cc3)CC2)c1,"inconclusive: 10 µM [inhibitor, single point]"
4,CC(=O)Oc1ccc(/C=C/c2nc3ccccc3c(=O)o2)cc1,"inconclusive: 12.6 µM [inhibitor, partial curve, poor fit]"
5,Cc1nc2ccccc2n1CCc1nc2c3ccccc3nc(SCc3ccccc3F)n2n1,inactive
6,O=C(COc1nsnc1N1CCOCC1)Nc1ccc(Br)cc1,"inconclusive: 11.2 µM [inhibitor, partial curve, poor fit]"
7,NC(Cc1ccccc1)c1csc(Nc2cc(Oc3ccccc3)ncn2)n1 (stereo not drawn),"inconclusive: 11.2 µM [inhibitor, single point]"
8,Cc1cc(F)ccc1NC(=O)C1CCCN(C(=O)c2cnn(-c3ccccc3)c2-n2cccc2)C1 (stereo not drawn),"inconclusive: 10 µM [inhibitor, partial curve]"
9,COc1cc(C(O)c2nc(-c3ccc4ccccc4c3)cs2)ccc1F (stereo not drawn),"inconclusive: 28.2 µM [inhibitor, single point]"
10,O=C(Cn1ncc(Cl)c(Cl)c1=O)NC(=O)NC1CCCCC1,"inconclusive: 28.2 µM [inhibitor, single point]"
11,COc1ccc(OC(=O)c2cn(-c3cccc(OC)c3)c(=O)c3ccccc23)cc1,"inconclusive: 12.6 µM [inhibitor, single point]"
12,COc1ccc(C(C)(C)C)cc1NC(=O)CCNC(=O)c1ccco1,"inconclusive: 3.16 µM [inhibitor, single point]"
13,Cc1ccc(NC(=O)CNCc2ccc(Cl)cc2Cl)cc1S(=O)(=O)N(C)C,"inconclusive: 31.6 µM [inhibitor, partial curve, poor fit]"
14,O=S(=O)(NCC(c1ccco1)S(=O)(=O)c1cccs1)c1ccccc1 (stereo not drawn),inactive
15,Cc1nc2ccc(NC(=O)c3cc(S(=O)(=O)N(C)c4ccccc4)ccc3Cl)cc2s1,"inconclusive: 1.58 µM [inhibitor, partial curve, poor fit]"
16,O=C(NCc1ccccc1)c1onc(CSc2ccc(F)cc2)c1C(=O)NCCCN1CCOCC1,"inconclusive: 11.2 µM [inhibitor, partial curve, poor fit]"
17,Cc1cc(C)c(NC(=O)C(C)n2nc(C)c3sc4ccccc4c3c2=O)c(C)c1 (stereo not drawn),inactive
18,O=C(Nc1ccc2c(c1)OCCO2)c1cncc(Br)c1,"inconclusive: 28.2 µM [inhibitor, single point]"
19,O=C(NCc1ccccn1)c1cc(-c2ccc(-c3ccccc3)cc2)nc2ccccc12,active: 2 µM
20,Cc1cccc(CN2CCN(Cc3cnn(-c4ccccc4F)c3)CC2CCO)n1 (stereo not drawn),"inconclusive: 0.891 µM [inhibitor, partial curve, poor fit]"
21,COC(=O)c1ccc2nc(-c3ccc(F)cc3)c(Cc3ccccc3OC)n2c1,"inconclusive: 28.2 µM [inhibitor, single point]"

row,Structure (SMILES),Potency
1,CC(C)c1ncc(C(O)c2cccc3ccccc23)n1C (stereo not drawn),"inconclusive: 5.01 µM [inhibitor, full curve, poor fit]"
2,O=C(CSc1ncccn1)NC(=O)NC1CCCC1,inactive
3,Cc1cccc(CCNC(=O)C2CCN(S(=O)(=O)c3ccccc3)CC2)c1,"inconclusive: 11.2 µM [inhibitor, partial curve, poor fit]"
4,CCC(NC(=O)NNC(N)=S)(C(F)(F)F)C(F)(F)F,inactive
5,CCSc1nc2c(cnn2-c2ccccc2)c(=O)n1N,inactive
6,O=C(C1=C[C@H](c2ccc(C(F)(F)F)cc2)C[C@H](OCCCCO)O1)N1CCN(Cc2ccc3c(c2)OCO3)CC1,"inconclusive: 28.2 µM [inhibitor, single point]"
7,CCOC(=O)c1cnc2c(ccc3ccccc32)c1NCCN(C)C,"inconclusive: 28.2 µM [inhibitor, single point]"
8,Cc1ccc(S(=O)(=O)N2CCC(CN3C(=O)c4cccc5cccc(c45)C3=O)CC2)cc1,inactive
9,COC(CNC(=O)c1ccc(N2CCCC2=O)cc1)OC,inactive
10,CCCN(CC(=O)Nc1ccccc1C)C(=O)C1CCCN(C(=O)c2ccc(Cl)cc2)C1 (stereo not drawn),"inconclusive: 7.94 µM [inhibitor, partial curve, poor fit]"
11,O=C(Nc1ccc(Br)cc1)C1CC(O)CN1C(=O)OCc1ccccc1 (stereo not drawn),"inconclusive: 28.2 µM [inhibitor, single point]"
12,CCC(Sc1nc2ccccc2s1)C(=O)Nc1cc(C)on1 (stereo not drawn),"inconclusive: 11.2 µM [inhibitor, single point]"
13,Cc1ccc(-c2noc(CN(C(=O)c3cccs3)C(C)C)n2)cc1,"inconclusive: 10 µM [inhibitor, partial curve, poor fit]"
14,CCCCCn1c(CCCNC(=O)c2ccccc2)nc2ccccc21,"inconclusive: 28.2 µM [inhibitor, single point]"
15,O=C(NC1CCCc2ccccc21)c1cncc(Br)c1 (stereo not drawn),inactive
16,COc1ccc(F)cc1CN1CCN(CC(=O)N2CCc3ccccc32)CC1,"inconclusive: 3.16 µM [inhibitor, partial curve, poor fit]"
17,CCCCCOc1ccc(C(=O)OC(C)C(=O)NCc2ccco2)cc1 (stereo not drawn),"inconclusive: 2.51 µM [inhibitor, full curve]"
18,CCN1C(=O)C(Cc2nc3ccccc3c(=O)n2-c2cccc(C)c2)c2ccccc21 (stereo not drawn),inactive
19,O=C(c1c(F)c(F)c(F)c(F)c1F)N(Cc1ccccc1)Cc1ccccc1,"inconclusive: 28.2 µM [inhibitor, single point]"
20,O=C(NNc1c(Cl)cccc1Cl)c1cccs1,"inconclusive: 11.2 µM [inhibitor, partial curve, poor fit]"
21,Cc1ccccc1NC(=O)c1c(C)oc2ccc(O)c(CN(C)Cc3ccccc3)c12,"inconclusive: 12.6 µM [inhibitor, single point]"

# Reference: PubChem BioAssay AID624417 (National Center for Advancing Translational Sciences (NCATS), 2012)
